Assay [1] has as its target SARS-CoV-2 Wuhan-Hu-1 spike pseudovirus. Kind of assay: pseudovirus neutralization IC50; higher = weaker neutralization. Here is the method: (§1)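 Single-round luciferase reporter pseudovirus mixed with antibody dilutions and put on 293T-ACE2 cells for 48 h; signal relative to no-antibody wells, four-parameter fit.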
The target is the same in assay [2]. As to the kind of experiment: pseudovirus neutralization IC90; higher = weaker neutralization. As for the experimental part: as §1
For assay [3], the target named is SARS-CoV-2 Wuhan-Hu-1 spike receptor-binding domain. As to the kind of experiment: ELISA binding EC50; higher = weaker binding; ELISA of recombinant human antibody on coated antigen, from 10 µg/ml in fourfold dilutions; four-parameter fit.

Numbering of substitutions follows the chain as printed. Recombinant human monoclonal antibodies (heavy:light variable regions). ELISA EC50 on the named antigen, from 10 µg/ml down; IC50 / IC90 against spike pseudovirus on 293T-ACE2 cells, 48 h; lower = stronger. Calls: IC50 above 1,000 ng/ml = non-neutralizing; EC50 above 2,000 ng/ml = non-binder. The source prints 1000 for neutralization that was not reached; it is given as >1000 ng/ml. A few antibodies were first reported in earlier work of the same group.

B1: C1395 (protein)
chain 1: QVQLQESGPGLMKPSQTLSLTCSVSGDSIRSGNNHWSWIRQPAGKGLEWIGRVYMSGDTHYNPSLKSRVTISVDTSKNHFSLKLSSVTAADTAVYYCTRGLRFLDYPVLDVWGTGTTVTVSS
chain 2: SYELTQPPSVSVAPGQTARITCGGNNIGSKSVHWFQLKPGQAPVLVVYDNSDRPSGIPERFSGSNSGNTATVTISRVEAGDEADYCCQVWDSSSDHPVFGGGTKLTVL
With B1, the “pseudovirus neutralization IC50” value in assay [1] was more than 1 µg/mL. The “pseudovirus neutralization IC90” value in assay [2] is more than 1 µg/mL. In addition, the “ELISA binding EC50” value in assay [3] is more than 10 µg/mL.

B2: C1393 (protein)
chain 1: EVQLVESGGGLVQPGRSLRLSCAASGFTFDDYAMHWVRQAPGKGLEWVSGISWNSGSIGYADSVKGRFTISRDNAKNSLYLQMNSLRLEDTALYYCAKNVYDSSGFYLDYWGQGTLVTVSS
chain 2: SYELTQPPSVSVSPGQTATITCSGDKLGHKYTSWYQQKPGQSPVLVIYQDDKRPSGIPERFSGSNSGNTATLTISGTQAMDEADYYCQAWDSITLIFGGGTKLTVL
On to B2, for which the “pseudovirus neutralization IC50” value in assay [1] is 0.0326 µg/mL. In assay [2], the “pseudovirus neutralization IC90” value came to 0.185 µg/mL. For the same molecule, in assay [3], the “ELISA binding EC50” value came to 0.00484 µg/mL.

B3: C2019 (protein)
chain 1: EVQLVESGGGLIQPGGSLRLSCAASGFIVSSNYMSWVRQAPGKGLEWVSVIYSGGSTYYADSVKGRFTISRDNSKNTLYLQMNSLRAEDTAVYYCARDYGDFYFDYWGQGTLVTVSS
chain 2: not shown
For the molecule B3, the “pseudovirus neutralization IC50” value in assay [1] stood at 0.127 µg/mL. For the same molecule, the “pseudovirus neutralization IC90” value in assay [2] is 0.809 µg/mL. Further, the “ELISA binding EC50” value in assay [3] was found to be 0.00279 µg/mL.

B4: C1398 (protein)
chain 1: B3 chain 1 with F27I, I28T, Y58F, G100M, D101L, F102R, Y103G, F104G, D105E, Y106D
chain 2: IRMTQSPSSLSASVGDRVTITCQASQDIRYFLNWYQQKPGKAPKLLIYDASNLETGVPSRFSGSGSGTDFTFTISSLQPEDIATYYCHQYDNLPRTYGQGTKLEIK
Take B4: in assay [1], the “pseudovirus neutralization IC50” value was found to be 0.00647 µg/mL. For the same molecule, the “pseudovirus neutralization IC90” value in assay [2] amounted to 0.0254 µg/mL. For the same molecule, the “ELISA binding EC50” value in assay [3] turned out to be 0.00132 µg/mL.

B5: C1399 (protein)
chain 1: QLQLQESGPGLVKPSETLSLTCTVSGGSISSSSYYWGWIRQPPGKGLEWIGSIYYTGITYYNPSLKSRATIYVDTSKNQFSLRLSSVTAADTAVFYCARHSRMYSDAYYTHSFDSWGQGTLVTVSS
chain 2: QSALTQPASVSGSPGQSITISCTGTSSDVGSYDLVSWYQQHPGKAPKLMIYEVIKRPSGVSIRFSGSKSGNTASLTISGLQAEDEADYYCCSYAGNYVFGTGTKLIVL
Consider B5, for which the “pseudovirus neutralization IC50” value in assay [1] was more than 1 µg/mL. In addition, the “pseudovirus neutralization IC90” value in assay [2] is more than 1 µg/mL. Moreover, the “ELISA binding EC50” value in assay [3] came out at 0.00355 µg/mL.

B6: C1391 (protein)
chain 1: EVQLVESGGGLVQPGRSLRLSCAASGFTFDDYAIHWVRQAPGKGLEWVSGMSWNSGTIGYADSVKGRFIISRDNAKNSLYLQMNSLRAEDTALYYCAKARLTGTNPWKFGEDAMDVWGQGTTVTVSS
chain 2: DIVMTQSPDSLAVSLGERATINCKSSQSVLYSSNNKNYLAWYQQKPGQPPNLLIYWASTRESGVPDRFSGSGSGTDFTLTISSLQAEDVAVYYCQQYYNTPLTFGGGTKVEIK
For the molecule B6, the “pseudovirus neutralization IC50” value in assay [1] was 0.0823 µg/mL. Also, the “pseudovirus neutralization IC90” value in assay [2] came to 0.905 µg/mL. Also, in assay [3], the “ELISA binding EC50” value was 0.00183 µg/mL.

B7: C1394 (protein)
chain 1: VQLVESGGGVVQPGKSLRLSCAAPGFPFSSYAMHWVRQAPGKGLEWVAVISYDGTQKYYADSLKGRFTISRDNSKNTFYLQMNRLRPEDTAVYYCAKGSGTYYLMQVDYWGQGTLVTVSS
chain 2: DIVMTQSPDSLAVSLGERATINCKSSQSVLYSSNNKNYLAWYQQKPGQPPKLLIYWASTRESGVPDRFSGSGSGTDFTLTISSLQAEDVAVYYCQQYYSTPTFGGGTKVEIK
Take B7: the “pseudovirus neutralization IC50” value in assay [1] was more than 1 µg/mL. Besides, the “pseudovirus neutralization IC90” value in assay [2] is more than 1 µg/mL. In assay [3], the “ELISA binding EC50” value was more than 10 µg/mL.

B8: C1389 (protein)
chain 1: QVQLVQSGAEVKKPGSSVKVSCKASGYTFSSFVISWVRQAPGQGLEWMGGIIPDFGTANYAETFQDRVTITADESTSTSYMRLSSLRSDDTAVYYCARGLIPAAWYFDRWGQGTLVTVSS
chain 2: EIVMTQSPATLSVSPGERATLSCRASQSVSGNLVWYQQKPGQAPRLLIYGASTRATGIPARFSGSGSGTEFTLTISSLQSEDFAVYYCQHYDNWFLTFGPGTKVDIK
Consider B8, for which, in assay [1], the “pseudovirus neutralization IC50” value was 0.0789 µg/mL. In addition, the “pseudovirus neutralization IC90” value in assay [2] came to 0.407 µg/mL. Further, the “ELISA binding EC50” value in assay [3] stood at 0.00185 µg/mL.

B9: C1397 (protein)
chain 1: QVQLQESGPGLVKPSETLSLTCTVSGASISSYYWSWIRQPPGKGLECIGYIYYSGSTNYNPSLKSRVTISVDTSKNQFSLKLSSVTAADTAVYYCARQRRSTSWSLLDYWGQGTLVTVSS
chain 2: B8 chain 2 with G31S, V34A, H90Q, D92N, F95P, L96E, P100Q, D105E
On to B9, for which the “pseudovirus neutralization IC50” value in assay [1] was more than 1 µg/mL. In addition, the “pseudovirus neutralization IC90” value in assay [2] was more than 1 µg/mL. Moreover, in assay [3], the “ELISA binding EC50” value is 0.291 µg/mL.
